Laboratory results reported in the RNAGym collection of RNA variant scans (doi:10.7554/elife.90254).
Read counts are not given, so values of variants with three or more changes are uncertain.

B1: LINE1-mini (parent)
chain: GGCAGAGCUCAACACAGCGUGGCAAAGUGGCUGUGGCUAGACUGCC

Variants of: B1
Experiment: self-cleavage, relative activity (ratio to wild type); higher = more cleavage; in vitro, sequencing; the parent is a self-cleaving ribozyme

Variant | self-cleavage
C13G U20G U38G C46A | 0.01
G5A C18U U43A | 0.17
G2U A14G G40A | 0.01
A6G U9A A12C U20A A25G | 0.01
G19C A25C G29C | 0.18
G21U A26C G33U | 0.13
C15U G30U G35C | 0.02
G5C C13A C23U G27U G33U U43G | 0
C10G C13A G19A U28A U32C C45U | 0.02
G7A C31A U38A A41G | 0.08
G17U A25U U38A | 0.02
C10A A14G C15A C18U C23U | 0.02
C10G G21U G35U G40A | 0.01
A12U C15A G29A G35A G44U | 0.08
A26U G35A G40A | 0.06
C3A G7U C13G G35A G40C | 0.14
G2A G19U U32A | 0.08
G1C C3U G7A C8A A11U U38G | 0.01
C3A A14G G21A G22A | 2.71
C18A U34C A39G | 0.13
A4U U28A U34A | 0.03

Variant | self-cleavage
A12C G21U A24C U32G | 0.02
G5C C10G C13G C18A C31U | 0.02
G19C A26G U34G | 0.07
C8A G21U G44U | 0.1
C8A C18U A26U U32C G36A | 0.24
G1C G19C U28G | 0.08
C3U A4C C18A A26G U38C G40A G44U | 0.04
C8G G30C C31G | 0.04
A6U C8U U9C A12C G29U C37G | 0.01
C8A C10U U20G | 0.05
G7C A25G G29U | 0.1
U9C C23A A24U | 0.06
A16C C18U G40A | 0.01
C10G G21C U34G | 0.07
G5C A12C C13A A14U G29C | 0.02
U9A G27A G36C G40A | 0.2
G2U C13G A25U G30A | 0.04
A6U A11G C13A A14G | 0.01
G5U C15A C31A | 0.04
G7A C10U G19U G33A | 0.03
G1U C13G U20G G36A | 0.02

Variant | self-cleavage
C3U G22A C31A G40A | 0.01
G19A A26C C31U C45U | 1.34
A14G C31G U34G | 0.17
U9A G30U G40U | 0.02
C8A C10U A16G A41G | 0.05
A12U U20A G33U | 0.03
U20C G22U C23A G30U U43A | 0.09
G7C A16G G21U C23U A24G | 0.14
A4U A6G G30C A39G | 0.31
C8A A11G A26C | 0.01
C31G G33A C42A | 0.06
G5A A14C G17C G21C C45U C46G | 0.03
C3A G19U A24U G36A C42U | 0.56
C8U C10A C23U G30C G40C | 0.01
G5C C23A G40C | 0.04
A25U A39C G40A C46G | 0.11
U9G C23A G27C C37G | 0.07
U9C G21C U32C C37G G40U | 0
A4G U32G U43A | 0.07
A4U U28C G29U U43C C46U | 0.12
G7A C18U C46A | 0.46

Variant | self-cleavage
C3U A6G C23G C31A | 0.02
G2A C3A G5A C10G A12C C31A A41G | 0.03
A4G G22U G29A C37U C45U | 0.07
G7C C10U U38G | 0.01
U9G A14C G36A A39C C45U | 0.03
A4U C15U G21C | 0.23
G2A G5U A39U | 0.2
G17C A24U C31A G36A | 0.12
U20A C37U U38A C45G C46U | 0.05
G19U C23A G29C G35C C37A U38A | 0.02
A4U C13A C42A | 0.09
G1A C15U G19C G44U | 0.18
A4U C13U C23A C45U | 0.2
G2C C10G A11U A16C A25C U28G | 0.01
C3U C23A G35U C45U | 0.22
C10G A11U G36U A39U | 0.01
C23U G29U A39C C42A | 0.08
G7A G29C U38C | 0.04
C8A G35U C42A | 0.31
C3U U38G A41C C45U | 0.03
